In all, about 310,000 compounds went through this assay and about 2,200 (0.71%) showed an effect of 50% or more. The effect is printed as a negative number. The list shows a part of the results.
target: human ether-à-go-go-related gene (hERG) potassium channel (human, UniProt Q12809); assay: primary screen, population patch clamp on CHO cells stably expressing hERG
Sequence (Q12809 whole entry, looked up): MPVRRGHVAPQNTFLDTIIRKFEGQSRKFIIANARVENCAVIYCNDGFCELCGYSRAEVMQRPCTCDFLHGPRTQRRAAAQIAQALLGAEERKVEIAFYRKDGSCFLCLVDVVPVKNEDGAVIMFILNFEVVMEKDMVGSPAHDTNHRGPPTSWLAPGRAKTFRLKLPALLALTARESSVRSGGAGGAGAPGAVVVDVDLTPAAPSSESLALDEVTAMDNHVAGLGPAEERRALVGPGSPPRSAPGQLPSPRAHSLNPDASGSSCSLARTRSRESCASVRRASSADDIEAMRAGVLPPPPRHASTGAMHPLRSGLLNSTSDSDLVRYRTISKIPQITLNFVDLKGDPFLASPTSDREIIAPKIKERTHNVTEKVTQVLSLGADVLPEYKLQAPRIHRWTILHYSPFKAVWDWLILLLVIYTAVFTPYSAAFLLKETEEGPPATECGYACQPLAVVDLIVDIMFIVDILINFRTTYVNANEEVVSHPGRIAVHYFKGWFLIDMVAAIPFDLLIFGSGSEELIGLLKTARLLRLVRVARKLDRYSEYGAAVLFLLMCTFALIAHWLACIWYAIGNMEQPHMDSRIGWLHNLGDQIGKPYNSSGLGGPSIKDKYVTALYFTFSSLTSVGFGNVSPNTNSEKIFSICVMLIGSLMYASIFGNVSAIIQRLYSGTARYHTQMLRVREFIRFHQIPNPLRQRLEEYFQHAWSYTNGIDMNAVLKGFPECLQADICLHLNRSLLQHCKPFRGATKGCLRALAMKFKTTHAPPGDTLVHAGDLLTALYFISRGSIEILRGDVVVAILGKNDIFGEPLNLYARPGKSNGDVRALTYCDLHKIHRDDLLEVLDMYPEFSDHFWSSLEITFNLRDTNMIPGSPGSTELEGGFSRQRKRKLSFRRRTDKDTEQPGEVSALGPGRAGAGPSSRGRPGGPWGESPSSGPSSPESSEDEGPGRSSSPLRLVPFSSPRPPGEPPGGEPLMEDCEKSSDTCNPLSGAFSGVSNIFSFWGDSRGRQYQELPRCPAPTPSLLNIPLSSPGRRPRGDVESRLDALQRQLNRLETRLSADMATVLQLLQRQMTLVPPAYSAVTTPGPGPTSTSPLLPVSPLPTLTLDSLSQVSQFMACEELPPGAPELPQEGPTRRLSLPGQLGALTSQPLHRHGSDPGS

Row | SMILES | hERG current change (%, negative = inhibition) at 1uM
1 | CCCc1nc(N)c(C#N)c(-c2ccco2)c1CC | 13.6%
2 | O=C(O)c1ccccc1/C=N/n1c(C2CCCCC2)n[nH]c1=S | 16.5%
3 | CCn1c(SCc2nc3ccccc3[nH]2)nnc1-c1cccs1 | -16.5%
4 | O=C(O)CSc1nnc(Nc2ccccc2)n1-c1ccccc1 | 15.9%
5 | Cc1cccc(N2CC(C(=O)NCCC3=CCCCC3)CC2=O)c1C (stereo not shown) | 7.01%
6 | O=C(CNC(=O)c1ccc(OC(F)F)cc1)NCC1(N2CCOCC2)CCCCC1 | -31.7%
7 | CC(C)c1ccc(/C=N/N2CCN(c3ccccn3)CC2)cc1 | 13.4%
8 | c1cnc2c(Oc3ncnc4sccc34)cccc2c1 | 3.15%
9 | Nc1c(C(=O)Nc2nc3ccccc3s2)sc2nc(-c3cccs3)ccc12 | 2.75%
10 | CC(=O)N1c2ccc(S(=O)(=O)N3CCCC3)cc2CC1C(=O)Nc1cc(C)cc(C)c1 (stereo not shown) | 0.812%
11 | CCN1C(=O)N(c2cccc3ccccc23)C(C)=CC1(C)C | 5.51%
12 | Cc1[nH]n(-c2ccccc2)c(=O)c1/C=N/NC(=O)c1ccccc1F | 12.3%
13 | CC(Nc1nc(-c2ccc(F)cc2)cs1)c1nc2cc(Cl)c(Cl)cc2n1CCOCCO (stereo not shown) | 1.95%
14 | CC1CCCN(C(=O)c2ccc(N3CC4CC(C3)c3cccc(=O)n3C4)c([N+](=O)[O-])c2)C1 (stereo not shown) | 5.59%
15 | Cc1ccc(-c2noc(CSc3nnc(Cc4ccccc4)n3-c3cccc(C)c3)n2)cc1 | -4.69%
16 | CCCCC(=O)N(c1ccc(C)c(C)c1)C1C=CS(=O)(=O)C1 (stereo not shown) | 12.7%
17 | CCn1c(SCC(=O)N2CCN(c3ccccc3)CC2)nc2c(c1=O)SC(C)C2 (stereo not shown) | -0.0715%
18 | CC(C)COP(=O)(OCC(C)C)C(Nc1ccccc1)c1ccccc1 (stereo not shown) | 8.62%
19 | Cc1ccc(NC(=O)CN(c2ccccc2)S(=O)(=O)N(C)C)cc1C | 12.8%
20 | CCCNC(=O)CCc1cc(C(C)(C)C)c(O)c(C(C)(C)C)c1 | 13.6%
21 | Cc1ccc(NCc2nnc(SCCN3CCCCC3)n2CC2CCCO2)c(C)c1 (stereo not shown) | -10.7%
22 | COC(=O)Nc1ccc2c(c1)N(C(=O)CCN1CCOCC1)c1ccccc1S2.Cl | 7.18%

Row | SMILES | hERG current change (%, negative = inhibition) at 1uM
23 | COc1cc(/C=N/NC(=O)c2ccccc2)ccc1OS(=O)(=O)c1ccccc1 | 4.34%
24 | CCC(=O)NNc1ccc(Br)cc1 | 4.6%
25 | Cc1nnc(SCCn2c(N3CCC(C)CC3)nc3c2c(=O)[nH]c(=O)n3C)s1 | 10.3%
26 | Cc1c(C(=O)N2CCN(C(=O)c3ccccc3)CC2)oc2ccc(F)cc12 | -5.86%
27 | COC(=O)C(=C/C(C)=C/c1cccnc1)C(=O)OC | 5.72%
28 | CCNc1nc(NCC)nc(N(C)n2cnnc2)n1 | -14.5%
29 | CCC1[NH+]=C(SC)NC(C)=C1C(=O)c1ccccc1.[I-] (stereo not shown) | -8.23%
30 | COCCn1c(SCC(=O)Nc2cccc(C(=O)OC)c2)nc2ccccc2c1=O | -26.7%
31 | CCOC(=O)C1CCCN(S(=O)(=O)c2ccc(C)cc2)C1 (stereo not shown) | -3.61%
32 | Nc1nc2c(F)cccc2s1 | 17.7%
33 | CCOC(=O)Nc1c(C)n(C)n(-c2ccccc2)c1=O | 5.85%
34 | CCN1C(=O)c2ccccc2S(=O)(=O)c2ccc(C(=O)NCCCN(CC(C)C)CC(C)C)cc21 | 6.62%
35 | COc1ccc(N2CCN(c3nc(NC(C)(C)C)nc(N4CCCCC4)n3)CC2)cc1 | 8.28%
36 | CCCc1cc(=O)[nH]c(SCC(=O)Nc2cc(C)on2)n1 | -39.7%
37 | O=C(NCc1ccncc1)C(=O)Nc1nc(C23CC4CC(CC(C4)C2)C3)cs1 | 0.149%
38 | O=S(=O)(O)c1nc2ccccc2n1Cc1cccc2ccccc12 | 17.2%
39 | O=S(=O)(c1ccc(F)cc1)N1CCN=C1SCc1cccc(F)c1 | 5.87%
40 | CCc1nnc(NC(=O)C(=O)NCCOC(=O)c2ccccc2Cl)s1 | 10.1%
41 | COc1ccc(NC(=O)COc2coc(CN3CCc4ccccc4C3)cc2=O)cc1 | -4.74%
42 | N#C/C(=C\Nc1ccc2c(c1)OCCO2)c1nc2ccccc2[nH]1 | 4.33%
43 | NS(=O)(=O)c1ccc(CCNC(=O)Nc2ccc(Cl)cc2)cc1 | -2.21%
44 | CN=C1SC(CC(=O)Nc2ccc(N3CCOCC3)cc2)C(=O)N1C (stereo not shown) | 1.66%

Row | SMILES | hERG current change (%, negative = inhibition) at 1uM
45 | CC1CCCC(N2CCN(S(=O)(=O)c3ccccc3)CC2)C1.O=C(O)C(=O)O (stereo not shown) | 13.7%
46 | CCOc1ccc(CN(C)CCc2ccccn2)cc1.O=C(O)C(=O)O | -58.8%
47 | Cc1nn(Cc2ccccc2)c2c1C(c1ccncc1)C(C#N)=C(N)O2 (stereo not shown) | 8.88%
48 | CC12CCC(=O)N1C(C(=O)Nc1nc3ccc(S(C)(=O)=O)cc3s1)CS2 (stereo not shown) | 15.9%
49 | Cc1ccc(S(=O)(=O)NNC(=O)C2COc3ccccc3O2)cc1C (stereo not shown) | 18.3%
50 | CCC(=O)Nc1ccc(N2CCCCC2)c(C(=O)Nc2ccccc2C)c1 | 16.9%
51 | CC(C)n1cnc2c(Nc3ccc(F)c(Cl)c3)nc(NCCO)nc21 | -0.419%
52 | C/C(=N\O)c1c(O)cc(-c2ccccc2)n(-c2ccccc2)c1=O | 12%
53 | Cc1cccc(/C=N\NC(=O)c2csnn2)c1 | 8.11%
54 | CCOC(=O)c1csc(NC(=O)c2ccc(N3C(=O)CCC3=O)cc2)n1 | 5.49%
55 | Cc1ccccc1CN(C)CC(=O)Nc1c(C)cccc1C(C)C | 10.4%
56 | CN(c1ccc(F)cc1)S(=O)(=O)c1ccc(Cl)c(C(=O)NC2(C)CCS(=O)(=O)C2)c1 (stereo not shown) | 15.9%
57 | CCOC(=O)C1=C(CSCc2ccccc2)NC(=O)NC1c1cc(C)ccc1C (stereo not shown) | 11.1%
58 | O=C(COc1cccc(F)c1)N[C@@H](Cc1ccccc1)c1nc2ccccc2[nH]1 | 12.9%
59 | CCn1c2ccccc2c2nc3ccccc3nc21 | 12.2%
60 | Cc1ccc(OCCn2c3ccccc3n3nc(C)c(=O)nc23)cc1 | 14.4%
61 | CCN1CCN(c2ncc(C(=O)N3CCCc4ccccc43)c3ccccc23)CC1 | -11.6%
62 | Cc1csc(NC(=O)c2cccn2C)n1 | 10.7%
63 | CC1Sc2ccc(S(=O)(=O)CCC(=O)NCc3cccs3)cc2NC1=O (stereo not shown) | 13.1%
64 | COc1ccc(OC)c(NC(=O)C2CC(=O)n3ncnc3N2)c1 (stereo not shown) | -6.75%
65 | O=C(N/N=C/c1cccc(O)c1)c1ccc(COc2ccccc2Br)cc1 | 1.93%
66 | CCc1nc2ccccc2n1Cc1ccc(OC)c(OC)c1 | -1.45%

Row | SMILES | hERG current change (%, negative = inhibition) at 1uM
67 | COC(=O)c1c(C)nc2ccccc2c1C(=O)O | 12.5%
68 | O=C(Cc1csc(-c2ccc(F)cc2)n1)Nc1cccc(S(=O)(=O)NC2=NCCC2)c1 | 2.99%
69 | Cc1cc2c(c(=O)o1)C(c1ccc([N+](=O)[O-])o1)C(C#N)=C(N)O2 (stereo not shown) | 4.84%
70 | CC(/C=N/NC(=O)c1cnccn1)=C\c1ccco1 | 8.74%
71 | CCOC(=O)Cc1csc(SCC(=O)NC(C)C23CC4CC(CC(C4)C2)C3)n1 (stereo not shown) | 2.08%
72 | O=C(CCCNC(=O)c1ccc(Cl)cc1)Nc1cccc(S(=O)(=O)N2CCCCC2)c1 | 6.48%
73 | O=S(=O)(c1ccccc1)N1CCN(C(=S)Nc2ccc(Br)cc2)CC1 | 14.5%
74 | Cc1ccccc1C(=O)NC1CCN(Cc2nnnn2Cc2ccc(F)cc2)CC1 | -10.8%
75 | FC(F)(F)c1ccc(CN2CCN(Cc3ccco3)CC2)cc1.O=C(O)C(=O)O | 7.41%
76 | Cc1ccc(S(=O)(=O)Nc2ccccc2F)cc1C(=O)N1CCCC1 | 8.68%
77 | CCN(CC(=O)N1CCCC1)S(=O)(=O)c1cc(C)ccc1OC | 14.8%
78 | Cc1ccc(C(C(=O)NC(C)(C)C)N(C(=O)c2csnn2)c2cccc(F)c2)o1 (stereo not shown) | 11.6%
79 | Cc1ccn2c(=O)nc(SCC(=O)NC3CCCCC3)nc2c1 | 2.62%
80 | Cc1cc(/C=C2/C(=O)NC(=O)N(C)C2=O)c(C)n1-c1ccccc1 | 12.1%
81 | O=C(NC1CC1)c1ccc(COc2ccc(F)cc2)o1 | 11.8%
82 | O=C(Nc1nc2ccccc2s1)c1ccc(N2CCCCC2)c([N+](=O)[O-])c1 | 9.52%
83 | Cn1c(SCC(=O)NC2CC2)nnc1-c1ccco1 | 16.3%
84 | CCn1cc(C(=O)NCCCN2CCCCCC2)c(=O)c2cc(S(=O)(=O)N3CCc4ccccc4C3)ccc21 | -24.5%
85 | O=C(NCCN1CCOCC1)c1ccccc1Oc1ccccc1 | -4.89%
86 | CCc1ccc(NC(=O)CCNS(=O)(=O)c2cccc3nonc23)cc1 | 25.5%
87 | COC(=O)CNC(=O)CN1C(=O)N(c2ccc(Cl)cc2)C(N(O)C(=O)Nc2ccc(Cl)cc2)C1(C)C (stereo not shown) | 9.64%
88 | O=C(NC(=O)c1ccc(Cl)cc1)Nc1ccc(-c2cnco2)cc1 | 12%

Source: article PMC4336329 (PLoS ONE, 2015)
